Out of some 410,000 compounds screened, about 7,200 (1.8%) were called active. This list was built around the results that the source calls inconclusive (neither active nor inactive); the mix of calls is not that of the screen. Calls come from the whole dose curve; as a rule, active = well fitted activation curve with a large enough effect; inconclusive = small, poorly fitted or top-dose-only effect, or another doubt; inactive = no such curve, though single readings can be large or run the other way. No potency is given beside an inconclusive call; the fits are too rough.
Experiment: qHTS of TDP-43 Inhibitors; note: nearly all actives have a fitted effect of over 50% in size; for growth rescue (activation): % of control where 0% means no effect
Conditions: TDP-43 expressing yeast growth rescue, BacTiter-Glo, 24 h; growth rescue (activation): at 46.1 µM (top of the series) unless noted
Procedure, shortened: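 In this qHTS, compounds that restore growth of yeast expressing TDP-43 appear as activators. Cells (OD600=0.02, galactose medium, raffinose-pregrown) are incubated with compound 24 hr at 30 deg C and growth is quantified by BacTiter-Glo.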
Potency is the fitted concentration of half-maximal effect; tags give direction and shape of the fitted curve.

Row | Structure (SMILES) | Potency | growth rescue (activation)
1 | C[C@H]1NS(=O)(=O)c2ccc(Br)cc2O[C@H]1c1ccccc1 | inconclusive [activator, partial curve] | 
2 | CCc1ccccc1C1=CC(=O)C[C@H](c2ccc(OC)cc2)C1 | inconclusive [activator, single point] | 
3 | O=C(NCc1cccc(Cl)c1)c1ccc2nc(N3CCOCC3)sc2c1 | active: 25.1 µM | 
4 | CCSc1nc(N2CCOCC2)c2c(c1C#N)CCCC2 | inconclusive [activator, partial curve] | 
5 | Cc1nc(NC(=O)C2CCCC2)sc1Cc1ccc2c(c1)OCO2 | inconclusive [activator, single point] | 
6 | CCOC(=O)C1C(=O)OC(C)(C)C1C(CC)C(=O)c1c(C)cc(C)cc1C (centres undefined) | inconclusive [activator, partial curve] | 
7 | O=[N+]([O-])c1cc(S(=O)(=O)Nc2ccccc2)ccc1Nc1ccccc1 | active: 12.6 µM | 
8 | O=C1Nc2ccc(Br)cc2/C1=C/C1CC=CCC1 (centres undefined) | active: 20 µM | 
9 | CC(C)NC(=O)N1CCC(c2nc3ccccc3s2)CC1 | inconclusive [activator, partial curve] | 
10 | O=C(COC(=O)c1ccc([N+](=O)[O-])s1)Nc1ccc(F)cc1 |  | inconclusive: -91.9% [activator]
11 | O=[N+]([O-])c1ccc(Sc2ccccc2Cl)nc1 | inconclusive [activator, single point] | 
12 | COC(=O)[C@@]12C[C@@H](CC(=O)N3CCC(c4ccccc4)CC3)C(=O)N(CCc3ccc(OC)c(OC)c3)C1=CCC(C)(C)C2 | inconclusive [activator, partial curve] | 
13 | C/C(=N\OCC(=O)N/N=C/c1ccc(C)cc1O)c1cccs1 | inconclusive [activator, full curve] | 
14 | O=C(NCCn1cc(SCc2ccc(F)cc2)c2ccccc21)c1cccs1 | inconclusive [activator, partial curve] | 
15 | Cc1ccccc1Cn1c(=O)n(CCC(=O)NCc2ccco2)c(=O)c2sccc21 |  | inactive: 7.75%
16 | COC(=O)C1=C(C)N(C(C)C)C(=O)C1(NC(=O)c1ccc(C(C)(C)C)cc1)C(F)(F)F (centres undefined) | inconclusive [activator, partial curve, poor fit] | 
17 | CC(C)C1C(=O)N(Cc2cn(CC3CCCCC3)nn2)CCS(=O)(=O)N1Cc1ccc(-c2ccc(F)nc2)cc1 (centres undefined) |  | inactive: 4.05%
18 | Cc1ccccc1C(=O)N1c2ncnn2C2(CCCCC2)[C@@H]2CCCC[C@@H]21 | inconclusive [activator, partial curve] | 
19 | Cc1cc(C(=O)Nc2ccc(Cl)cc2)n(-c2ccccc2)n1 | inconclusive [activator, partial curve] | 
20 | COc1ccc(NC(=O)CCNS(=O)(=O)c2ccc(C)c(C)c2)cc1OC |  | inactive: 0.723%
21 | COc1ccc(C(=O)/C=C/N2CCCCC2)cc1OC | inconclusive [activator, single point] | 
22 | Cc1ccnc(SCC(=O)c2ccc([N+](=O)[O-])cc2)n1 | inconclusive [activator, partial curve] | 
23 | COc1ccc(NC(=O)C2CCC(CNS(=O)(=O)c3ccc(Br)s3)CC2)c(OC)c1 (centres undefined) |  | inactive: -7.54%

Row | Structure (SMILES) | Potency | growth rescue (activation)
24 | O=C(Nc1nc(-c2nc3ccccc3s2)cs1)c1ccco1 | inconclusive [activator, partial curve, poor fit] | 
25 | Cc1ccc(Cn2c(C)c3cnn(CC(=O)NCCc4ccc(Cl)cc4)c(=O)c3c2C)cc1 |  | inactive: 5.86%
26 | Cc1cc(C=O)c(C)n1-c1cc(C(F)(F)F)ccc1N1CCOCC1 | inconclusive [activator, single point] | 
27 | O=C(COC(=O)[C@@H]1CCCN1C(=O)c1cccs1)Nc1cccc(Cl)c1 | inconclusive [activator, single point] | 
28 | CCc1ccc(OC(=O)/C=C/c2ccco2)cc1 | inconclusive [activator, partial curve] | 
29 | Cc1ccc(C(=O)c2ccccc2C(=O)OCC(=O)NCCc2ccccc2)cc1 |  | inactive: 8.33%
30 | O=C(OCn1ncc(Cl)c(Cl)c1=O)c1cccc(C(F)(F)F)c1 | inconclusive [activator, partial curve, poor fit] | 
31 | CN(CC(=O)Nc1ccccc1Cl)C(=O)c1ccc(COc2ccccc2)cc1 | inconclusive [activator, partial curve] | 
32 | CC(C)CC(COCc1ccc(Cl)cc1)N1CCN(C(=O)c2ccc(Cl)cc2Cl)CCC1=O (centres undefined) | active: 25.1 µM | 
33 | O=C(COC(=O)c1ccc(F)c([N+](=O)[O-])c1)NC(=O)NCc1ccccc1 | inconclusive [activator, single point] | 
34 | COCCNC(=S)N/N=C(\C)c1ccc(OC)cc1 | inconclusive [activator, partial curve] | 
35 | COc1cccc(C2CC(=O)Nc3c2ccc(C)c3C)c1OC (centres undefined) | active: 17.8 µM | 
36 | CCc1cc(Cn2nc(-c3ccccc3)cc2C(=O)NCc2cccs2)on1 |  | inactive: 0.919%
37 | CCOc1ccc(S(=O)(=O)NCCC(=O)N2CC=C(c3ccccc3)CC2)cc1 | inconclusive [activator, partial curve] | 
38 | CCc1cc(C(=O)Nc2c(C)nn(Cc3ccccc3Cl)c2C)no1 | inconclusive [activator, full curve] | 
39 | CCNC(=O)C1(C)CCCN1Cc1cccc(C(F)(F)F)c1 (centres undefined) | inconclusive [activator, full curve] | 
40 | O=C(Nc1ccccc1F)c1ccc(Cn2nc(N3CCN(c4ccccc4)CC3)ccc2=O)o1 | inconclusive [activator, single point] | 
41 | OCCC1CN(CCCc2ccccc2)CCN1Cc1ccc(F)cc1 (centres undefined) |  | inactive: 0.878%
42 | Cc1onc(-c2ccccc2Cl)c1C(=O)NCC(=O)O |  | inactive: 8.1%
43 | Cc1ccc(Cl)cc1N1CCN(C(=O)c2cnn(C)c2C2CCN(C(=O)OC(C)(C)C)CC2)CC1 | active: 22.4 µM | 
44 | Cc1ccc2sc(-c3ccc(N)cc3)nc2c1 | inconclusive [activator, partial curve] | 
45 | COc1ccc(-c2nc(CSCC(=O)N3CCc4ccccc4C3)c(C)o2)cc1OC | inconclusive [activator, single point] | 
46 | COc1ccccc1NS(=O)(=O)c1ccc(NC(=O)c2ccccn2)cc1 | inconclusive [activator, partial curve] | 

Row | Structure (SMILES) | Potency | growth rescue (activation)
47 | CCCCNC(=O)CSc1nc2nc(C)c(Cc3c(F)cccc3Cl)c(C)n2n1 |  | inactive: 17.7%
48 | CCC(=O)N1CCc2cc(CNC(=O)c3ccccc3C)ccc21 | inconclusive [activator, partial curve] | 
49 | Cc1ccc2c(c1)[C@@H](O)C[C@@H](C)N2N=O |  | inactive: 0%
50 | COc1ccccc1-c1cccc([C@@H]2C[C@H]3[C@H](CON3C)CN2S(=O)(=O)c2ccccc2C)c1 | inconclusive [activator, partial curve] | 
51 | CCSc1nc(C)cc(C)c1S(=O)(=O)c1ccccc1C |  | inactive: 21.2%
52 | COCCNc1nc(Oc2ccc(C(N)=O)cc2)c2sccc2n1 |  | inactive: 6.92%
53 | Cc1ccc(NC(=O)c2ccc(OCc3c(C)noc3C)cc2)c(C)c1 | inconclusive [activator, partial curve] | 
54 | O=C(COc1ccc2ccccc2c1)NCCc1ccc2c(c1)OCCO2 | inconclusive [activator, single point] | 
55 | OC(c1ccccc1)c1nc(-c2cc(F)cc(F)c2)cs1 (centres undefined) | inconclusive [activator, single point] | 
56 | CCc1cc(=O)oc2cc(C)cc(OC(=O)c3ccco3)c12 | inconclusive [activator, single point] | 
57 | CCOc1ccc2nc(N3CCN(C(=O)c4ccco4)CC3)sc2c1 | inconclusive [activator, partial curve] | 
58 | N#Cc1ccc(CSc2nnc(-c3ccncc3)o2)cc1 | inconclusive [activator, partial curve] | 
59 | CCOC(=O)Cc1cc(OC)c(OC)cc1Cc1cc(OC)c(OC)cc1CC(=O)OCC |  | inactive: -5.24%
60 | O=S(=O)(c1ccccc1)[C@@]1(c2ccc(Br)cc2)C[C@@H]2ON=C(c3ccccc3)[C@@H]2C1 | inconclusive [activator, single point] | 
61 | CC(C)(C)c1cc(NC(=O)c2cccs2)no1 | inconclusive [activator, partial curve] | 
62 | c1ccc(-n2nnnc2SCc2cccc3nsnc23)cc1 | inconclusive [activator, full curve] | 
63 | COc1cc(OC)c(C=Cc2ccncn2)c(OC)c1 | inconclusive [activator, partial curve] | 
64 | COc1cccc(CN(C)C(=O)c2cc(-c3cccs3)nc3ccccc23)c1 | inconclusive [activator, partial curve] | 
65 | COc1cc(NC(=O)c2cc(-c3ccc(F)cc3OC(C)C)n[nH]2)cc(OC)c1OC | active: 28.2 µM | 
66 | Cc1ccc(C)c(OCCCC(=O)O)c1 | inconclusive [activator, single point] | 
67 | CC(=O)Nc1nc(-c2ccc(Cl)cc2)ns1 | active: 12.6 µM | 
68 | COc1ccc(OC)c(NC(=O)c2cccc3c2C(=O)N(C2CCCCC2)C3)c1 | inconclusive [activator, partial curve] | 
69 | O=C(NNC(=S)Nc1ccccc1)c1cc(-c2cccnc2)nc2ccccc12 | inconclusive [activator, partial curve] | 
